# Results published in PubChem BioAssay AID624417 (National Center for Advancing Translational Sciences (NCATS), 2012).
# In all, about 410,000 compounds went through this assay and about 6,400 (1.6%) were called active. This list was built around the results that the source calls inconclusive (neither active nor inactive); the mix of calls is not that of the screen. Calls come from the whole dose curve; as a rule, active = well fitted inhibition curve with a large enough effect; inconclusive = small, poorly fitted or top-dose-only effect; inactive = no such curve, though single readings can be large or run the other way. No potency is given beside an inconclusive call; the fits are too rough.
# Biological target: Glucagon-like peptide 1 receptor (Homo sapiens) (UniProt P43220)
# Experiment: qHTS of GLP-1 Receptor Inverse Agonists (Inhibition Mode); note: nearly all actives have a fitted effect of over 55% in size
# Conditions: HEK293 GLP-1R CRE-luciferase, luminescence, 24 h, GLP-1R form is constitutively active; series mostly up to 38.3 µM
# In short: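 Inverse agonism was detected as reduced cAMP-driven luciferase luminescence after 24 h compound treatment. The cells were HEK293 clones expressing constitutively active human GLP-1R with the reporter. Reporter-only and GPR119 cell lines served as counterscreen controls.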
# Potency is the fitted concentration of half-maximal effect; tags give direction and shape of the fitted curve.
# Chain of UniProt P43220 (P43220 whole entry, looked up): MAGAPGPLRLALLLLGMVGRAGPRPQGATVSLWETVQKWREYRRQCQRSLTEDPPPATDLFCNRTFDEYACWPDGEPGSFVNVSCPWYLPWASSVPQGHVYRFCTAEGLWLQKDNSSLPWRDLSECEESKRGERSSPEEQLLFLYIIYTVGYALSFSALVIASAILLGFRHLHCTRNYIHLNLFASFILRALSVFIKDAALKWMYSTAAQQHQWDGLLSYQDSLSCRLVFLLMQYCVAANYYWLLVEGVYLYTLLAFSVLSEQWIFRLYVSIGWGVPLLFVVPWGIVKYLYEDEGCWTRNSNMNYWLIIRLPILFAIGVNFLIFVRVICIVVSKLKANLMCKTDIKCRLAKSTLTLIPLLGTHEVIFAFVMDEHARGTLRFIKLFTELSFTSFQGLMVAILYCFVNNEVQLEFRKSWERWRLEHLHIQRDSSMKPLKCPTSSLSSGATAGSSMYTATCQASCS
row,Compound,Potency
1,COc1ccc(-c2cc(C#N)nc(N3CCN(C)CC3)n2)cc1,"inconclusive [inhibitor, single point]"
2,CCOC(=O)COc1ccc(C)cc1C(=O)c1ccn2nc(-c3ccc(C)cc3)cc2n1,inactive
3,CC(C)NC(=O)c1ccccc1NS(=O)(=O)c1ccc(Br)s1,"inconclusive [inhibitor, single point]"
4,C=CCN(CC=C)Cc1cc(=O)oc2cc(OC)c(Cl)cc12,"inconclusive [inhibitor, single point]"
5,Cc1ccc(C)c(CN2C(=O)c3ccccc3S(=O)(=O)c3ccc(C(=O)N4CCN(c5ccccn5)CC4)cc32)c1,inactive
6,c1ccc(CSc2nnc(-c3ccccc3)c(-c3ccccc3)n2)cc1,"inconclusive [inhibitor, single point]"
7,CCCN1C(=O)C(Cc2nc3ccccc3c(=O)n2-c2ccccc2)c2cc(C)ccc21 (stereo not given),"inconclusive [inhibitor, single point]"
8,N=c1c2c3c(sc2ncn1N)CCCC3,"inconclusive [inhibitor, partial curve, poor fit]"
9,CC(=O)N(Cc1ccc(F)cc1)C1=C(NCCc2ccccc2)C(=O)c2ccccc2C1=O,"inconclusive [inhibitor, partial curve, poor fit]"
10,CC(C)CN(Cc1c(O)ccc2ccccc12)CC(C)C,inactive
11,C/C(=N\NC(=O)CC1N=C(Cc2ccccc2)NNC1=O)c1ccc(C)cc1 (stereo not given),"inconclusive [inhibitor, partial curve, poor fit]"
12,COc1cc(NC(=O)CN2C(=O)COc3ccc(S(=O)(=O)N4CCCCC4)cc32)cc(OC)c1,"inconclusive [inhibitor, partial curve, poor fit]"
13,COc1ccc(C)cc1NC(=O)NCc1ccc2c(c1)CCN2C(=O)c1ccccc1,"inconclusive [inhibitor, partial curve, poor fit]"
14,Cc1cccc(-n2ncc3c(N(C)Cc4ccccc4)ncnc32)c1,"inconclusive [inhibitor, single point]"
15,CCOC(=O)c1cnc2cc(-c3ccc(C)cc3)nn2c1-c1ccccc1,"inconclusive [inhibitor, full curve, poor fit]"
16,C=Cc1ccc(CN2C(=O)N(c3ccc(CC)cc3)S(=O)(=O)c3ccccc32)cc1,"inconclusive [inhibitor, partial curve, poor fit]"
17,Cn1ncc(Br)c1C(=O)NC12CC3CC(CC(C3)C1)C2,active: 10 µM
18,COc1ccc(C(=O)NCCc2sc(-c3ccc(Cl)cc3)nc2C)c(OC)c1,"inconclusive [inhibitor, single point]"
19,O=C(COC(=O)C1(c2ccc(Cl)cc2)CCCC1)Nc1ncc(C(F)(F)F)cc1Cl,"inconclusive [inhibitor, partial curve, poor fit]"
20,CC(C)c1ccc(NC(=O)NC2CCN(CC(=O)Nc3cccc4ccccc34)CC2)cc1,"inconclusive [inhibitor, partial curve, poor fit]"

row,Compound,Potency
1,OCCCc1nc2n(n1)C(c1ccccc1Cl)C=C(c1cccs1)N2 (stereo not given),inactive
2,Cc1cccc(NC(=O)CN2CCc3cc4c(cc3C2)OCCCO4)c1,"inconclusive [inhibitor, single point]"
3,COc1ccc(Oc2c(C)oc3c(CN4CCOCC4)c(O)ccc3c2=O)cc1,"inconclusive [inhibitor, single point]"
4,COc1cc(OC)c(OC)cc1/C=C1\CCC(C2CCCC2)C1=O (stereo not given),"inconclusive [inhibitor, single point]"
5,CC(C1CC1)N(C(=O)c1ccccc1O)c1ccccc1 (stereo not given),"inconclusive [inhibitor, single point]"
6,CCN(C(=O)c1cc(Cl)ccc1OC)c1ccccc1C,"inconclusive [inhibitor, partial curve]"
7,Cc1ccccc1-c1cc2nc(NCCOc3ccccc3Cl)n(C)c(=O)c2s1,"inconclusive [inhibitor, single point]"
8,CCOC(=O)C1=C(C)NC(C)=C(C(=O)OCC)C1c1cc2ccc(C)cc2[nH]c1=O,"inconclusive [inhibitor, single point]"
9,Cc1ccc(-n2ncc3c(=O)n(CC(=O)NCc4ccco4)cnc32)cc1,inactive
10,N#Cc1nc(Cc2ccccc2)oc1NCc1ccccc1Cl,"inconclusive [inhibitor, single point]"
11,O=C(/C=C/c1ccccc1)Nc1cccc(S(=O)(=O)Nc2ccccc2F)c1,"inconclusive [inhibitor, partial curve, poor fit]"
12,CCN1C(=O)[C@H]2[C@@H](c3ccc(-c4ccc(F)cc4)c(OC)c3)N3CCCC[C@@]3(C(=O)OC)[C@H]2C1=O,"inconclusive [inhibitor, single point]"
13,COc1ccc(CNC(=O)CN(c2ccc(OC)c(Cl)c2)S(=O)(=O)c2ccc(C)cc2)cc1,"inconclusive [inhibitor, partial curve]"
14,CCCn1cnc2c(c1=O)c1nc3ccccc3nc1n2CCc1ccccc1,inactive
15,Cc1cc(N2CCN(c3ccccc3)CC2)nc(NCc2ccccc2)n1,"inconclusive [inhibitor, full curve, poor fit]"
16,Cc1cc(O)cc2c1C1CCC3(C)C(O)CCC3C1C=C2 (stereo not given),inactive
17,CCCCN1C[C@H](Cc2ccccc2)[C@@H](CC(=O)NCc2ccc(OC)cc2)C1=O,"inconclusive [inhibitor, single point]"
18,COc1ccc(CC(N)c2csc(Nc3cccc(OC)n3)n2)cc1 (stereo not given),"inconclusive [inhibitor, partial curve, poor fit]"
19,CCOC(=O)c1ccn(S(=O)(=O)c2ccc(C)cc2)c1-c1ccccc1,"inconclusive [inhibitor, single point]"
20,CCOc1ccc(NC(=O)CSc2nnc(C)n2C2CC2)cc1S(=O)(=O)N1CCCC1,inactive
